This is one part of the list. Values were computed here from the reads of four pooled replicates and scatter widely.

This experiment concerns the target T1, Pho4 (S. cerevisiae) (UniProt P07270).
T1 sequence: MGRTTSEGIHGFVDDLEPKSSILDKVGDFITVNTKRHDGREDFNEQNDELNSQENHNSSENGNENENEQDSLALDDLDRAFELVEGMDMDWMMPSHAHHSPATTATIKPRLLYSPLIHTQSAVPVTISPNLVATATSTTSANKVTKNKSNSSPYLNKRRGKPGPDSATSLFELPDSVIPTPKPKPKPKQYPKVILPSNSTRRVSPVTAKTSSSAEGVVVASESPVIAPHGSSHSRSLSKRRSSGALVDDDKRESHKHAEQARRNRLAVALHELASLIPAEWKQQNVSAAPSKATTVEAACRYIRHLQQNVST
The experiment in a line: relative binding free energy (BET-seq); higher = weaker binding. As to conditions: reference: library average.
On to TTCTTCACGTGAGGTT, for which the “relative binding free energy” value came out at 0.37 kcal/mol.
As to TTAGTCACGTGCTGTT, the “relative binding free energy” value was determined as 0.14 kcal/mol.
Turning to TGATACACGTGTGGTC, the “relative binding free energy” value was -0.04 kcal/mol.
The same measure for GGTCTCACGTGGTGCG: 0 kcal/mol.
Turning to AATTTCACGTGTATGA, the “relative binding free energy” value worked out at 0.3 kcal/mol.
With TATGGCACGTGGATCA, the “relative binding free energy” value amounted to 0.01 kcal/mol.
With GTCATCACGTGGGGGT, the “relative binding free energy” value was found to be 0.16 kcal/mol.
The same measure for AGGTGCACGTGATTAT: 0.14 kcal/mol; for CGTATCACGTGTGGTC: 0.25 kcal/mol; for TTAGCCACGTGAATTG: 0.29 kcal/mol.
As for GTTGCCACGTGTGGTT, the “relative binding free energy” value is 0.06 kcal/mol.
As for GCTGTCACGTGGGGGG, the figure is -0.04 kcal/mol; as for TAGGTCACGTGATGAT, 0.26 kcal/mol; as for AGGGGCACGTGCCGGG, -0.26 kcal/mol.
As for AATTGCACGTGTCGTA, the figure is -0.06 kcal/mol; as for ATGAGCACGTGTTGGC, 0.03 kcal/mol; as for GGTGGCACGTGTGAGC, -0.11 kcal/mol.
As for GAGATCACGTGGGCGG, the figure is 0.1 kcal/mol.
With TTGGGCACGTGTAGGC, the “relative binding free energy” value was 0.11 kcal/mol.
As for ATGTACACGTGATTTC, the figure is 0.19 kcal/mol.
The same measure for AACCGCACGTGGTGTG: -0.09 kcal/mol.
Turning to TTTCGCACGTGTCGTG, the “relative binding free energy” value came out at 0 kcal/mol.
The same measure for GTAGGCACGTGAATGG: 0.19 kcal/mol; for CGTCTCACGTGTTTTT: 0.2 kcal/mol; for CTTGGCACGTGTATTA: 0.01 kcal/mol.
As for CCGGTCACGTGAAGGT, the figure is 0.24 kcal/mol; as for CGTGTCACGTGGGATA, 0 kcal/mol.
As for AGGGTCACGTGATAAT, the figure is 0.32 kcal/mol.
With TAAGTCACGTGATATT, the “relative binding free energy” value was 0.3 kcal/mol.
Take TGGAGCACGTGTCGGA: the “relative binding free energy” value was 0.01 kcal/mol.
The same measure for GATGTCACGTGTTCGA: 0.24 kcal/mol; for GTTGGCACGTGAAGGA: 0.29 kcal/mol; for AGTGTCACGTGGAGGA: 0.11 kcal/mol.
As for CGTGACACGTGTAAGG, the figure is 0.01 kcal/mol; as for TTACGCACGTGGGGCA, -0.28 kcal/mol; as for TATAACACGTGGGGTA, -0.29 kcal/mol.
As for GTGGGCACGTGGATAA, the figure is -0.03 kcal/mol; as for TGTCACACGTGTTATT, 0.07 kcal/mol; as for ACAGTCACGTGGGGTA, -0.05 kcal/mol.
Consider TATGACACGTGTAGGG, for which the “relative binding free energy” value was determined as 0.05 kcal/mol.
The same measure for CTGTTCACGTGTTAGG: 0.22 kcal/mol; for GTGGACACGTGGCATT: 0.11 kcal/mol.
As for GATTGCACGTGGGTAA, the figure is -0.14 kcal/mol.
As for TGCGTCACGTGTGACT, the figure is 0.2 kcal/mol; as for CTGGTCACGTGAATGA, 0.36 kcal/mol.
Turning to TCCGGCACGTGGGGTG, the “relative binding free energy” value is -0.26 kcal/mol.
The same measure for TGTAACACGTGTGTAA: -0.04 kcal/mol; for AAGTGCACGTGATTAT: 0.02 kcal/mol.
For the sequence GGTGTCACGTGCGCGC, the “relative binding free energy” value stood at 0.09 kcal/mol.
Regarding GGGGGCACGTGCTGAA, the “relative binding free energy” value is -0.25 kcal/mol.
The same measure for AGTGCCACGTGCTGTG: -0.14 kcal/mol; for GGCTTCACGTGATTTG: 0.39 kcal/mol.
Consider TGTGGCACGTGCTTCG, for which the “relative binding free energy” value is -0.05 kcal/mol.
The same measure for AAGGTCACGTGCGATT: 0.13 kcal/mol.
The same measure for AATGTCACGTGGATAT: 0.11 kcal/mol.
As for TGGGACACGTGGTTAC, the figure is 0.06 kcal/mol.
On to ATTGGCACGTGGGACA, for which the “relative binding free energy” value is -0.21 kcal/mol.
GGCTACACGTGGGTCG: the “relative binding free energy” value was 0.15 kcal/mol.
With GCGCGCACGTGAGTGG, the “relative binding free energy” value came out at 0.14 kcal/mol.
As for TCGGTCACGTGAACTG, the figure is 0.47 kcal/mol.
As for GGTATCACGTGTCTTG, the figure is 0.23 kcal/mol; as for GAGGTCACGTGGTAGG, 0.19 kcal/mol.
As for TTTAGCACGTGTCGCA, the figure is 0.01 kcal/mol.
Take AGGAGCACGTGAGATG: the “relative binding free energy” value came to 0.07 kcal/mol.
The same measure for GGGTGCACGTGTACGA: 0 kcal/mol.
As to CAGCGCACGTGGGTGG, the “relative binding free energy” value is -0.19 kcal/mol.
As for ATATTCACGTGATCGG, the figure is 0.35 kcal/mol; as for TAGGACACGTGTTCGT, -0.08 kcal/mol; as for TAAGGCACGTGGGTAA, -0.25 kcal/mol.
On to TTTAACACGTGGTTTG, for which the “relative binding free energy” value was -0.06 kcal/mol.
As for GCAATCACGTGGGTGG, the figure is 0.07 kcal/mol.
The same measure for TGGATCACGTGGTCGA: 0 kcal/mol; for CTGATCACGTGTGGGT: 0.15 kcal/mol.
As for TTTCACACGTGGGGAA, the figure is 0.05 kcal/mol.
As to TAGGGCACGTGGCGGG, the “relative binding free energy” value was -0.19 kcal/mol.
As for ATTTACACGTGTCGGG, the figure is 0.21 kcal/mol; as for AATAGCACGTGCTGGG, -0.14 kcal/mol; as for GGGAACACGTGCAGTG, 0.08 kcal/mol.
As for ACGGTCACGTGGGCTG, the figure is 0.1 kcal/mol; as for GATAGCACGTGCTAGT, -0.01 kcal/mol.
Take TTATTCACGTGTACAG: the “relative binding free energy” value is 0.22 kcal/mol.
As for GCGACCACGTGGTTGG, the figure is 0.12 kcal/mol; as for AATATCACGTGGCTTT, 0.2 kcal/mol; as for CTGTGCACGTGAGGGC, -0.02 kcal/mol.
As for AGGTACACGTGTCGTA, the figure is 0.07 kcal/mol; as for TAGGTCACGTGGGCTC, 0.01 kcal/mol.
On to TTGGTCACGTGGCATA, for which the “relative binding free energy” value is 0.1 kcal/mol.
Regarding GCTTGCACGTGGTGAG, the “relative binding free energy” value amounted to 0.02 kcal/mol.
As for CGGGACACGTGTTTTT, the figure is 0.21 kcal/mol; as for GTCTGCACGTGTAGGA, 0.15 kcal/mol.
The same measure for TGTGACACGTGAGCTT: 0.15 kcal/mol.
Consider TGATTCACGTGTGGGT, for which the “relative binding free energy” value amounted to 0.32 kcal/mol.
The same measure for GTTGGCACGTGAAATG: 0.17 kcal/mol.
For the sequence AGGCACACGTGTGTGA, the “relative binding free energy” value worked out at 0.02 kcal/mol.
Regarding AAAGTCACGTGTATTT, the “relative binding free energy” value was 0.12 kcal/mol.
In the case of AACATCACGTGGGTAT, the “relative binding free energy” value was found to be 0.16 kcal/mol.
As for GGTAGCACGTGCTGTT, the figure is -0.03 kcal/mol; as for TTGTTCACGTGGCAGC, 0.12 kcal/mol.
TGGATCACGTGTAATA: the “relative binding free energy” value was found to be 0.28 kcal/mol.
As to AAAGTCACGTGGGGGT, the “relative binding free energy” value is -0.08 kcal/mol.
With GGAACCACGTGGGGGT, the “relative binding free energy” value is -0.19 kcal/mol.
As for TGCGCCACGTGGTTTA, the figure is -0.02 kcal/mol.
For TAATTCACGTGTCGTG, the “relative binding free energy” value is 0.1 kcal/mol.
In the case of AGTCTCACGTGGGGCT, the “relative binding free energy” value is -0.01 kcal/mol.
As for TGGATCACGTGTAATG, the figure is 0.14 kcal/mol; as for TTGTTCACGTGCTGGT, 0.2 kcal/mol.
The same measure for GTTAGCACGTGTTGTC: 0.07 kcal/mol.
On to CTTGGCACGTGACGTA, for which the “relative binding free energy” value was determined as 0.09 kcal/mol.
For the sequence GTTTTCACGTGGCGAG, the “relative binding free energy” value turned out to be 0.24 kcal/mol.
As for TCTGGCACGTGTTGTT, the figure is -0.09 kcal/mol.
As for ATTTTCACGTGAGCGG, the figure is 0.32 kcal/mol.
As for GTGGTCACGTGAGAGC, the figure is 0.43 kcal/mol; as for AAATGCACGTGGACGG, 0.02 kcal/mol; as for ATAATCACGTGTTTTT, 0.1 kcal/mol.
With GGATTCACGTGGTATA, the “relative binding free energy” value stood at 0.29 kcal/mol.

These data come from the BET-seq Pho4 binding data (Le et al. 2018).
